# Laboratory results taken from paper PMC11271582, “Pan-serotype dengue virus inhibitor JNJ-A07 targets NS4A-2K-NS4B interaction with NS2B/NS3 and blocks replication organelle formation” (Nature Communications, 2024).
# Key:
# NS4A-2K-NS4B precursor = NS4A-2K-NS4B precursor (Dengue virus type 2, UniProt P29990); test: pulse-chase labeling, cleavage kinetics in the polyprotein (pIRO-D) context; type: cell-based, DENV-2; settings: 35 nM; pIRO-D NS4B-HA*, Huh7/Lunet-T7 cells; vehicle 15.4 ± 2.6 min; n = 3
# Experimental: This observation was made in the trans-cleavage system (Fig. 2a). […] (NS4B-HA*) (Fig. 3a) and conducted pulse-chase experiments in presence or absence of JNJ-A07. Proteins were radio-labeled with [^35S] cysteine and methionine for 20 min, followed by incubation in non-radioactive medium for different time spans. Fully cleaved NS4B-HA* and corresponding cleavage intermediates were enriched by pulldown and proteins were analyzed by SDS-PAGE and autoradiography.
# 13 h later, cells were cultured in starvation medium for a further hour (DMEM lacking FCS, cysteine and methionine, but supplemented with 2 mM L-glutamine, 100 U/mL penicillin and 100 µg/mL streptomycin). After exchange to starvation medium containing [^35S]-label mix (100 µCi/well), cells were incubated for 20 minutes (pulse). Immediately thereafter, cells were washed once with DMEMComplete and maintained in this medium until harvest at different time points (chase). In the case of JNJ-A07 treatment, the compound was re-added at 35 nM concentration during the starvation, labeling and incubation phases. Samples were analyzed using the standard protocol for immunoprecipitation except that no adjustment of protein concentration was performed and no control sample of total lysates was collected. […] Gels were analyzed by phosphoimaging using exposure times ranging from 3 to 20 days. […]
# [1] = system: sgDVs-R2A replicons with NS4B resistance mutations (DENV 2/16681); design: method as in PMID 34671169; settings: fold change in EC50 versus WT; cited from earlier work
compound,measurement,setting,value
COc1cc(NC(C(=O)N2CCc3ccc(OC(F)(F)F)cc32)c2ccc(Cl)cc2)cc(OCCCC(=O)O)c1 (centres unmarked) [JNJ-A07],NS4A-2K-NS4B precursor half-life,NS4A-2K-NS4B precursor,13.6 ± 2.0 min
same,"resistance conferred by NS4B mutations S85L, T108I and A137T",[1],weak
